This note sets out measurements from the supplement of paper PMC11417369.

The list shows a part of the results.

The subject of the assay is PfHDP1 homeodomain (GST-tagged). In words: gcPBM binding intensity (ln(normalized median fluorescence intensity)); higher = stronger DNA binding. In short, it runs like this: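 An Agilent 4 × 180k array carrying primer-extended double-stranded 36-bp intergenic genomic probes and negative controls received GST-tagged P. falciparum DNA-binding domains expressed in E. coli, about 25 μg on average, for 1 h. The binding buffer contained 1× PBS, 1% milk, 0.2 mg/ml BSA, 0.5% salmon testes DNA and 0.03% Triton X-100. Binding intensity is the top Masliner-normalised natural-log median intensity across replicate spots of either probe orientation, read after Alexa488 anti-GST antibody staining and a 488 nm scan.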
For the sequence “ATTTATGAAAAAAATACATGCATGTCCATATAAATT [TGCATGCA_site505]”, the “gcPBM binding intensity (ln)” value turned out to be 6.47.

Take “TTATTTTCTACAAATTGTACATATTTTTTACTACTC [XGTACX_site1394]”: the “gcPBM binding intensity (ln)” value was found to be 6.93.

As to “CGAATAAATATATGTAGTACATGTTGTAGATAATTT [XGTACX_site1218]”, the “gcPBM binding intensity (ln)” value amounted to 6.62.

Regarding “TCTTTCTATTAAACATGTACTTGTCTAAAGACATAA [XGTACX_site8564]”, the “gcPBM binding intensity (ln)” value was 6.55.

In the case of “TATATATATTTAAATTGTACATATATTATTCATATG [XGTACX_site911]”, the “gcPBM binding intensity (ln)” value is 6.37.

In the case of “TTTTATAATTTATCTAAAAAAAAATAAAATAAAATG [TGCATGCA_negctrl_site429]”, the “gcPBM binding intensity (ln)” value amounted to 6.03.

For the sequence “ATAAAATAAAATAAAAGTACATAAATATATATATAT [XGTACX_site6110]”, the “gcPBM binding intensity (ln)” value came to 8.63.

Regarding “TTTTTTTTTCTTTGCACACAGATAACTTGAAATTTG [CACACA_site2185]”, the “gcPBM binding intensity (ln)” value was 8.74.

Turning to “ATAAGGATCAGACACAAACACACATATATATATATA [CACACA_site558]”, the “gcPBM binding intensity (ln)” value came out at 9.17.

Consider “AAATAATTCATATGTTGTACAGTAATTAAATTTTCT [XGTACX_site6343]”, for which the “gcPBM binding intensity (ln)” value was found to be 6.31.

On to “ATAATTAATCCAAAATGTACTTACATTTTATATGAA [XGTACX_site8888]”, for which the “gcPBM binding intensity (ln)” value came to 6.32.

On to “ACATATATATATATTACACACACACTAATAAAATAA [CACACA_site7920]”, for which the “gcPBM binding intensity (ln)” value is 7.18.

For the sequence “TTTCAAGAATTATATAAACACACATACATACACCCA [CACACA_site8592]”, the “gcPBM binding intensity (ln)” value stood at 7.09.

Consider “ATATATATATTTTATTGTACAAAAAAAAAAAAAAAA [XGTACX_site6803]”, for which the “gcPBM binding intensity (ln)” value was found to be 7.4.

With “TTGTTATGCATTGGTTGTACATAAGTATAAGTAATT [XGTACX_site5401]”, the “gcPBM binding intensity (ln)” value was determined as 6.59.

As to “CCATTATACACAATATGTACATATATATAATCATTT [XGTACX_site7942]”, the “gcPBM binding intensity (ln)” value was determined as 7.38.

As to “AAAAAAAAAATATGTACACACATATAAAATACATAA [CACACA_site6869]”, the “gcPBM binding intensity (ln)” value was 6.52.

Take “ATAGGATTCTCAAAGTGTACTTGTCTACTGTAGTTT [XGTACX_site4202]”: the “gcPBM binding intensity (ln)” value worked out at 6.22.

As to TTTGTTTGTAAAATGTTGCACTTTCTTTTGCTGATA, the “gcPBM binding intensity (ln)” value turned out to be 8.05.

In the case of “TGTTTTGTTATTTTTATTTATATAAATAAAGCTATA [GTGCAC_negctrl_site88]”, the “gcPBM binding intensity (ln)” value was 7.01.

Regarding “ATATATATATTATATGCACACTAATAAGACTATTTA [CACACA_site5880]”, the “gcPBM binding intensity (ln)” value was found to be 9.95.

As to “CATAAATACAGTAACACACACAAAAAAATATGAATA [CACACA_site6066]”, the “gcPBM binding intensity (ln)” value turned out to be 6.94.

For the sequence “AAAAAAAAAAAAAAAAGTACAAATTTAAAAATGTGT [XGTACX_site112]”, the “gcPBM binding intensity (ln)” value is 6.49.

Take “TTGGTTTCTTGTTTTTGTACCCATAATTTGTAATAT [XGTACX_site1248]”: the “gcPBM binding intensity (ln)” value is 7.19.

Consider “AATAATAAAATAAAAGTGCATTAATTATAATTCTTT [GTGCAC_site9491]”, for which the “gcPBM binding intensity (ln)” value amounted to 8.2.

Regarding “GAGGAAAAAAAAAAAAGTACATTATATAAGAAAATT [XGTACX_site2610]”, the “gcPBM binding intensity (ln)” value was found to be 6.11.

As for “TTAAATATTTATATTTGTACACAATCAATCATACAC [XGTACX_site5793]”, the “gcPBM binding intensity (ln)” value was 6.81.

On to “AATTATAATAATAATAGTACATAAGTATATAAATAA [XGTACX_site2400]”, for which the “gcPBM binding intensity (ln)” value was determined as 6.39.

On to “TCTTTCTAAATCTTACAAATTACTAAAATATTTATA [CACACA_negctrl_site87]”, for which the “gcPBM binding intensity (ln)” value worked out at 6.28.

Take “ATGATATACGTAAACACACAAATAAAAAAAATTTAT [CACACA_site7544]”: the “gcPBM binding intensity (ln)” value was found to be 6.36.

For “TATATAGCATATTTCACACACACATAATGAATATTA [CACACA_site3546]”, the “gcPBM binding intensity (ln)” value is 6.59.

As to “TTAAAAAGAAAGTTCACACACATATAGATGACGGAA [CACACA_site7268]”, the “gcPBM binding intensity (ln)” value is 6.76.

Take “TTTTTTAGTTTTTAGTGTACATAAATAAATAAATAA [XGTACX_site2843]”: the “gcPBM binding intensity (ln)” value came to 6.54.

With “TGATACTTATGATAAATACACACTTGAAATTAAGGA [CACACA_site1152]”, the “gcPBM binding intensity (ln)” value was determined as 6.33.

“TTCATTAAATAGAACAAAATAATAATATAACAACAA [GTGCAC_negctrl_site116]”: the “gcPBM binding intensity (ln)” value is 6.77.

With “TTAAAGATATACAAAAGTACTTTTTTTTTCGTCATT [XGTACX_site384]”, the “gcPBM binding intensity (ln)” value came out at 6.09.

For “CCATATCTTTTTTGCACACACTACAATAAAACAAAA [CACACA_site4995]”, the “gcPBM binding intensity (ln)” value turned out to be 10.6.

Consider “AATAATCATAGTTCTACACACCTATATTGCAAAAAA [CACACA_site867]”, for which the “gcPBM binding intensity (ln)” value was found to be 8.22.

As to “GGTTCATATATTAACACACACATACATATTATATAT [CACACA_site2937]”, the “gcPBM binding intensity (ln)” value turned out to be 6.91.

Turning to “TGAGAGAGAAACGTAGTGCATAAAATCAAATTTAGA [GTGCAC_site9737]”, the “gcPBM binding intensity (ln)” value was found to be 8.98.

“TTATAAAAAATTTTAGTGCATATATGATTTATATAT [GTGCAC_site9831]”: the “gcPBM binding intensity (ln)” value stood at 9.44.

On to “TACAAAAATAAATGTTGTACTATTATTTATTTCGAT [XGTACX_site1048]”, for which the “gcPBM binding intensity (ln)” value is 6.2.

Consider “TAATATGTATTTACAAGTACTAACAAAATATTAAAA [XGTACX_site3379]”, for which the “gcPBM binding intensity (ln)” value was found to be 6.37.

In the case of “TTTAAATAAAATATTACACACTTAGAAAAATATATA [CACACA_site3663]”, the “gcPBM binding intensity (ln)” value came out at 6.23.
